According to PubChem BioAssay AID488969 (Vanderbilt High Throughput Screening Facility, 2010):
The full ranking holds about 110,000 compounds; the median of “z-score” is about -0.1, and the highest 2% start at about 2. The list shows a part of the results. Activity calls are given as the source filed them.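 Rule for the calls: active = z-score in the third read window above 3 or below -3; inactive = the rest.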

target: Metabotropic glutamate receptor 8 (Rattus norvegicus) (UniProt P70579); test: mGluR8 Gi/Go-coupled signaling modulation – cell-based, rat, thallium flux, HTS, primary screen (AID 488969); conditions: HEK293 rat mGluR8, GIRK (G protein-gated inwardly rectifying potassium channel) thallium flux, FluoZin2; at 10 µM; stronger effect = higher value; submaximal glutamate (EC20) added with thallium
UniProt P70579, sequence (P70579 whole entry, looked up): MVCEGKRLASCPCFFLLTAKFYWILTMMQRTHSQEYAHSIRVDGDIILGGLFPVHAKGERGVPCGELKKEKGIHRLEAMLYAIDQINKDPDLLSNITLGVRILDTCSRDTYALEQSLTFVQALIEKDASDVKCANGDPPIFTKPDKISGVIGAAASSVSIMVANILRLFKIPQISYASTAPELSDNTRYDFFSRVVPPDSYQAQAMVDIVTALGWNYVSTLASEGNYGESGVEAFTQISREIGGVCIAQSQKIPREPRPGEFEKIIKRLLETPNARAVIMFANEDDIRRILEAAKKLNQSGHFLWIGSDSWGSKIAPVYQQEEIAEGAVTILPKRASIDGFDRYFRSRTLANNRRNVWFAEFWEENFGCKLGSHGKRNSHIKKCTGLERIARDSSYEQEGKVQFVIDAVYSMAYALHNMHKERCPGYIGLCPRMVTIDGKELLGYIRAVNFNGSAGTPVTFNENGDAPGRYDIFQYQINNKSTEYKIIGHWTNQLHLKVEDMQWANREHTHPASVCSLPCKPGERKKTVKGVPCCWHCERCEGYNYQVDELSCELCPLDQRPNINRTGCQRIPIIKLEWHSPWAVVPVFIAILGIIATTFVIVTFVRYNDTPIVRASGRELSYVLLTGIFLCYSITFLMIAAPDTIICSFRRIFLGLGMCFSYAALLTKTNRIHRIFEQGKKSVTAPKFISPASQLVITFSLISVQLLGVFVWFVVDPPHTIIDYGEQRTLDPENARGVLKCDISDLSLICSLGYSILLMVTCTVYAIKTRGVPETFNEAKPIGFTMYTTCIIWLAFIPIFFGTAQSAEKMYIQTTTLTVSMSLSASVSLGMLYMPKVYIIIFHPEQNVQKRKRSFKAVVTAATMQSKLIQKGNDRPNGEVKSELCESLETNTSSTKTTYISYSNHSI

Row | Structure (SMILES) | z-score
1 | CSC1=NCCN1C(=O)COc1ccc2ccccc2c1 | -0.884
2 | c1ccc(CSc2ccc(-c3ccc4c(c3)OCO4)nn2)cc1 | 0.0698
3 | CC(C)c1ccc(NC2(C#N)C(=O)Nc3ccccc32)cc1 (stereo not given) | -0.0513
4 | CC(C)NC(=O)c1onc(CSc2ccc(Cl)cc2)c1C(=O)O | -1.59
5 | Cc1nn(C)c(C)c1/C=N/NC(=O)c1csc2ccccc12 | -0.509
6 | O=C1CN(C(=O)COc2cccc(F)c2)c2ccccc2N1 | -0.539
7 | Cc1cccc(-c2n[nH]c(=S)n2/N=C/c2ccc(C)s2)c1 | 0.7
8 | CC(C)Cn1c2c(c(=O)[nH]c1=O)C(C(F)(F)F)(C(F)(F)F)N=C(CCC1CCCCC1)N2 | -0.271
9 | O=C(OC(C(=O)NCc1cccs1)c1ccccn1)c1cccs1 (stereo not given) | 1.45
10 | Cn1c(Cl)c(/C=N/OC(=O)c2cccc(Cl)c2)c2ccccc21 | -0.438
11 | CC(=O)Nc1ccc(C(=O)Cn2nnc3ccccc3c2=O)cc1 | 0.208
12 | O=C(CSc1nc2ccccc2s1)NNC(=S)Nc1ccc(Cl)cc1 | 0.0228
13 | O=C(CNc1cccc(C(F)(F)F)c1)N/N=C/c1cccc(Br)c1 | 0.0214
14 | CCN(CC)C(=O)Cn1cc(/C=C(\C#N)C(=O)N2CCN(c3ccccc3)CC2)c2ccccc21 | -0.167
15 | COc1cccc(OCc2nnc(SCC(=O)OCc3ccccc3)o2)c1 | -0.776
16 | Cc1ccc(Cl)cc1NC1=NC(=S)N(C(C)C)C12CCCCC2 | 0.728
17 | Cc1ccc(OCCSc2nnc(NC(=O)c3ccco3)s2)cc1 | 1.22
18 | O=S(=O)(NCC1CCCO1)c1ccc(Cl)c(C(F)(F)F)c1 (stereo not given) | -0.143
19 | O=C1c2ccccc2C(=O)N1CCCCN(C(=O)c1cccc([N+](=O)[O-])c1)c1ccc(Cl)cc1 | 0.017
20 | CCN1CCN(c2nc3c(C)cccn3c(=O)c2/C=C(\C#N)S(=O)(=O)c2ccc(C)cc2)CC1 | -1.38
21 | O=C(NCc1ccc2c(c1)OCO2)c1cc(-n2cnnc2)ccc1Cl | -0.0397
22 | Cc1ccc(C)c(OCC(O)CN2C(C)CCCC2C)c1 (stereo not given) | active: 3.05
23 | O=C(CSc1nnnn1Cc1ccccc1)NCC(=O)c1ccccc1 | -0.00225
24 | COc1ccccc1CNC(=O)COC(=O)C1=COCCO1 | 0.183
25 | COc1ccc(Oc2coc3c(CN(C)C)c(O)ccc3c2=O)cc1 | -0.116
26 | O=c1[nH]c(NCCO)nc2c1C1(CCCC1)Cc1ccccc1-2 | -0.677
27 | CC(C)CC(=O)N1CCC(N2CCN(c3ccccc3)CC2)CC1 | 0.146
28 | CCOC(CNC(=O)c1cc(C)nn1-c1ccccc1)OCC | 0.00918
29 | O=S(=O)(NCc1cc(-c2ccccc2Cl)no1)c1ccc(Cl)cc1 | -0.33
30 | COc1ccc(C(=O)N2CCN(C(=O)Cc3ccccc3)CC2)cc1OC | 0.326
